Test results: PubChem BioAssay AID485294 (National Center for Advancing Translational Sciences (NCATS), 2010)
About 150 (0.041%) of roughly 370,000 compounds were called active. This list was built around the results that the source calls inconclusive (neither active nor inactive); the mix of calls is not that of the screen. Calls follow the shape of the dose curve; as a rule, active = well fitted inhibition curve with a large enough effect; inconclusive = small, poorly fitted or top-dose-only effect; inactive = flat fitted curve, though single readings scatter. Potencies of inconclusive entries are left out as doubtful fits.

These compounds were tested against Beta-lactamase (Escherichia coli (strain K12)) (UniProt P00811) (assay: qHTS Inhibitors of AmpC Beta-Lactamase (assay with detergent)). Conditions: AmpC hydrolysis of nitrocefin, absorbance 480 nm, 0.01% Triton; activity change, negative = inhibition: at 114 µM (top of the series).
Method in brief: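 AmpC (5.3 nM in the dispensed reagent) in 20 mM phosphate pH 7.0 with 0.01% (detergent screen) or 0.0001% Triton X-100 was preincubated with compounds for 15 min at room temperature. Nitrocefin was then added from an 800 uM solution, and hydrolysis was followed at 480 nm.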
Also: nearly all actives have a fitted effect of over 25% in size.
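For activity change, negative = inhibition in this document: 0% = no-compound wells and -100% = no-enzyme wells.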
Potency is read from the fitted curve at half-maximal effect; tags tell the direction and shape of the fitted curve.

Chain of UniProt P00811 (P00811 whole entry, looked up): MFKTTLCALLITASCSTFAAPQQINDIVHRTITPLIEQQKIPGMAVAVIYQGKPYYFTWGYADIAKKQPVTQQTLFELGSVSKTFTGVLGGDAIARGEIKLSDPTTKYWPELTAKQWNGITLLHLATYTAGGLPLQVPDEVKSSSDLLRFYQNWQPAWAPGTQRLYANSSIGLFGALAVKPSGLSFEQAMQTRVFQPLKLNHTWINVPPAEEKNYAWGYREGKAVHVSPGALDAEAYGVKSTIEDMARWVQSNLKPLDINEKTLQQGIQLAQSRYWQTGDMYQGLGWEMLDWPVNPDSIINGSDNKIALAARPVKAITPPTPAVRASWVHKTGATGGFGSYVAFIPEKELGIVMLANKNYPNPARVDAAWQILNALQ

| Structure (SMILES) | Potency | activity change, negative = inhibition |
| --- | --- | --- |
| COc1cc(S(=O)(=O)NCc2ccc3c(c2)OCO3)ccc1Cl | inconclusive [inhibitor, partial curve] |  |
| CCCn1ncc(CN2CCC(C(=O)Nc3cccc(-c4cccc(F)c4)c3)CC2)c1C | inconclusive [inhibitor, partial curve] |  |
| Cc1cc(C)nc(N/C(=N/S(=O)(=O)Cc2ccccc2)Nc2ccccc2)n1 | inconclusive [inhibitor, full curve, poor fit] |  |
| CCN(CC)CCN(C(=O)c1ccc2c(c1)OCCO2)c1nc2ccc(C)cc2s1 | inconclusive [inhibitor, partial curve] |  |
| Cn1c2ccccc2c2ncn(Cc3ccco3)c(=O)c21 | inconclusive [inhibitor, full curve, poor fit] |  |
| CCn1c2ccccc2c2cc(NC(=O)c3ccccc3[N+](=O)[O-])ccc21 | inconclusive [inhibitor, full curve] |  |
| C[N+](C)(C)CC(O)CC(=O)O (stereo unspecified) | inconclusive [inhibitor, full curve, poor fit] |  |
| CN1CCC(N(C)c2nc(-c3ccc([N+](=O)[O-])cc3)nc3ccccc23)CC1 |  | inactive: 1.1% |
| COc1ccc(-n2c(Cc3cccn3C)nnc2SCC(=O)Nc2cccc(NC(C)=O)c2)cc1 | inconclusive [inhibitor, single point] |  |
| O=C(NCc1ccccc1)NC(=O)c1ccncc1 | inconclusive [inhibitor, full curve, poor fit] |  |
| CC(=O)Nc1cccc(C(=O)OCC(=O)NC(=O)Cc2ccccc2)c1 |  | inactive: -10.4% |
| C=CCn1c(SCC(=O)Nc2sccc2C(N)=O)nc2ccc(Cl)cc2c1=O | inconclusive [inhibitor, single point] |  |
| Cn1nccc1C(=O)N/N=C/c1cccnc1 |  | inactive: 0.506% |
| COc1ccc2nc(NC(=O)Cc3ccc(OC)c(S(=O)(=O)N4CCOCC4)c3)sc2c1 | inconclusive [inhibitor, full curve] |  |
| CC1(C(=O)Nc2cccc(C(F)(F)F)c2)CO1 (stereo unspecified) | inconclusive [inhibitor, full curve, poor fit] |  |
| O=C(Nc1cccc(S(=O)(=O)N2CCOCC2)c1)c1cc2ccccc2o1 |  | inactive: 0.761% |
| Cc1ccc(CC(=O)NCCS(=O)c2ccc(Cl)cc2)cc1 (stereo unspecified) | inconclusive [inhibitor, single point] |  |
| COc1ccc(OC)c(CN2CCN(C(=O)c3cc(S(=O)(=O)Nc4ccccc4OC)ccc3C)CC2)c1 |  | inactive: -5.24% |
| COC(=O)c1ccc2c(c1)C(C)(C)C(/C=C/c1ccc(OC)c(OC)c1OC)=[N+]2C | inconclusive [inhibitor, partial curve, poor fit] |  |
| Cc1ccccc1CNC(=O)c1ccccc1SCC(=O)NCc1ccco1 | inconclusive [inhibitor, partial curve, poor fit] |  |
| COC(=O)c1c(NC(=O)CSc2nc(-c3ccco3)cc(C(F)(F)F)n2)sc2c1CCCC2 | inconclusive [inhibitor, full curve] |  |
| COc1ccccc1C(=O)NC(C)C(c1cccs1)N1CCOCC1 (stereo unspecified) | inconclusive [inhibitor, full curve] |  |

| Structure (SMILES) | Potency | activity change, negative = inhibition |
| --- | --- | --- |
| COc1ccc(C2c3c(ccc4ccccc34)Oc3ncn4nc(-c5ccco5)nc4c32)cc1OC (stereo unspecified) | inconclusive [inhibitor, full curve, poor fit] |  |
| O=C(c1ccncc1)N1N=C(C2CCCCC2)CC1(O)C(F)(F)F (stereo unspecified) | inconclusive [inhibitor, single point] |  |
| Cc1ccc(NC(=O)C(=O)NNC(=O)c2cccs2)cc1 |  | inactive: 2.5% |
| CCN(CC(=O)Nc1c(F)cccc1F)C(=O)c1cccc(S(=O)(=O)N(C)c2ccccc2)c1 | inconclusive [inhibitor, full curve] |  |
| O=C1NC(=O)/C(=C\c2ccc(Sc3ccc(Cl)cc3)o2)N1 | inconclusive [inhibitor, single point] |  |
| O=C(c1ccc([N+](=O)[O-])cc1)N(Cc1ccc(Cl)cc1)N1C(=O)CCCC1=O | inconclusive [inhibitor, full curve, poor fit] |  |
| Cc1ccc(-c2cc(C(=O)N3CCOCC3)c3ccccc3n2)cc1 |  | inactive: 0.0583% |
| COc1cccc2c(=O)cc(C)n(CC(=O)Nc3ccc(C)c(C)c3)c12 | inconclusive [inhibitor, full curve, poor fit] |  |
| CC1(C)CC(=O)C(C=NCCCN2CCOCC2)=C(O)C1 | inconclusive [inhibitor, full curve, poor fit] |  |
| COc1ccc(C(=O)Nc2cccc(C(=O)OCc3cc(=O)n4nc(C5CC5)sc4n3)c2)cc1 |  | inactive: -0.135% |
| CCN(CC)CCCNc1nc2ccccc2[nH]1 | inconclusive [inhibitor, partial curve] |  |
| Cc1ccc(C(=O)OCC(=O)Nc2ccccc2)cc1NC(=O)c1ccco1 |  | inactive: -10.4% |
| N#CC1=C(N)C(C#N)(C#N)C(c2cccnc2)C2CCCC=C12 (stereo unspecified) |  | inactive: -18.1% |
| CC1CCc2c(nc3ncnn3c2N2CC(C)OC(C)C2)C1 (stereo unspecified) | inconclusive [inhibitor, single point] |  |
| Cc1ncoc1C(=O)N1CCCC(C(=O)c2ccc(C(F)(F)F)cc2)C1 (stereo unspecified) | inconclusive [inhibitor, single point] |  |
| O=S(=O)(c1ccccc1)N1CCN(C2CCN(Cc3ccccc3)CC2)CC1 |  | inactive: -17% |
| O=C(Nc1ccccn1)c1ccc(COc2ccccc2Cl)o1 |  | inactive: 3.3% |
| CC(=O)c1ccc2noc(-c3cccc(C)c3)c2c1 | inconclusive [inhibitor, full curve] |  |
| CSc1ccccc1C(=O)Nc1ncc(C)s1 | inconclusive [inhibitor, partial curve, poor fit] |  |
| Cc1noc(C)c1COC(=O)c1ccccc1Oc1ccccc1 |  | inactive: -0.168% |
| NC(=O)CN1CCN(C(=O)NC2CCCCC2)CC1 | inconclusive [inhibitor, full curve, poor fit] |  |
| CC(C)c1ccccc1NC(=O)c1cnccn1 | inconclusive [inhibitor, full curve, poor fit] |  |

| Structure (SMILES) | Potency | activity change, negative = inhibition |
| --- | --- | --- |
| COc1cccc(/C=C2/NC(=O)N(CC(=O)Nc3ccc(C)cc3)C2=O)c1OCc1cccc(C(=O)O)c1 | inconclusive [inhibitor, full curve] |  |
| CC(Oc1ccc(Cl)cc1Cl)C(=O)N(C)c1ccccc1 (stereo unspecified) | inconclusive [inhibitor, single point] |  |
| Cc1cc(C)nc(N/N=C2/CCCC/C2=C\c2ccccc2)n1 | inconclusive [inhibitor, full curve, poor fit] |  |
| Cn1cccc1CNC(=O)Nc1ccc(Cl)cc1 | inconclusive [inhibitor, full curve, poor fit] |  |
| COc1ccc(OCC(O)CNC(=O)/C=C/c2cccc([N+](=O)[O-])c2)cc1 (stereo unspecified) | inconclusive [inhibitor, full curve, poor fit] |  |
| Cc1ccc(C2C(C(=O)c3cc4ccccc4o3)=C(O)C(=O)N2c2cc(C)on2)cc1 (stereo unspecified) |  | inactive: 2.37% |
| COc1ccc(NC(=S)NC(NC(=O)/C=C/c2ccccc2)C(Cl)(Cl)Cl)cc1 (stereo unspecified) |  | inactive: 0.698% |
| O=C(NC1CC2CCCC(C1)N2C(=O)N1CCCCC1)C1CCCCC1 (stereo unspecified) | inconclusive [inhibitor, full curve, poor fit] |  |
| CC1(C)NC(=O)N(CCCSc2ccc(Cl)cc2)C1=O | inconclusive [inhibitor, partial curve] |  |
| CCCCCCCCOC(=O)CCn1[nH]c(=O)c2ccccc2c1=O | inconclusive [inhibitor, full curve, poor fit] |  |
| Cc1cccc(NC(=O)C2CCN(S(=O)(=O)c3ccc4c(c3)NC(=O)CO4)CC2)c1C | inconclusive [inhibitor, full curve] |  |
| COc1ccc(-n2c(N)c(C(=O)NCc3ccco3)c3nc4ccccc4nc32)c(OC)c1 | inconclusive [inhibitor, full curve] |  |
| O=C(COc1ccccc1)NC1=NCCS1 | inconclusive [inhibitor, single point] |  |
| CCCCCCn1c(SCC(=O)OC)nc2c1c(=O)[nH]c(=O)n2C | inconclusive [inhibitor, full curve, poor fit] |  |
| CCOC(=O)C(=NCCOC)NNc1cc(Cl)ccc1Cl | inconclusive [inhibitor, full curve] |  |
| Cc1sc2ccccc2[n+]1CC(=O)c1ccccc1 | inconclusive [inhibitor, full curve, poor fit] |  |
| O=C(C1=NN(c2ccccc2)C2C(=O)N(c3ccccc3Cl)C(=O)C12)c1ccccc1 (stereo unspecified) |  | inactive: 15.3% |
| CCCCCC(=O)Nc1cccc(C2=NOC3(C2)C[C@@H](C(N)=O)N(C(=O)c2ccc(Cl)cc2)C3)c1 (stereo partly specified) |  | inactive: -5.32% |
| Cc1ccc(Cn2cc(S(=O)(=O)c3cccc(C)c3)c(=O)c3cc(F)c(N4CCOCC4)cc32)cc1 |  | inactive: 0.813% |
| Cc1cc(C(F)F)n2ncc(C(=O)NCCc3ccc(Cl)cc3)c2n1 | inconclusive [inhibitor, single point] |  |
| Cc1cccc(-c2cc3nc4c(c(N5CCCC(O)C5)n3n2)CCC4)c1 (stereo unspecified) | inconclusive [inhibitor, partial curve, poor fit] |  |
| CC(=O)c1cccc(NC(=O)c2sc3nc4n(c(=O)c3c2C)CCCC4)c1 | inconclusive [inhibitor, full curve, poor fit] |  |
